Sequences and labels used below:
B1: TNFα dAb Fc variant F71A (Fc fusion, name in Kabat numbering)
chain: DIQMTQSPSSLSASVGDRVTITCRASQAIDSYLHWYQQKPGKAPKLLIYSASNLETGVPSRFSGSGSGTDATLTISSLLPEDFATYYCQQVVWRPFTFGQGTKVEIKRV[human IgG1 Fc with changes left out]
B2: TNFα dAb Fc variant D82Q (Fc fusion, name in Kabat numbering)
chain: DIQMTQSPSSLSASVGDRVTITCRASQAIDSYLHWYQQKPGKAPKLLIYSASNLETGVPSRFSGSGSGTDFTLTISSLLPEQFATYYCQQVVWRPFTFGQGTKVEIKRV[human IgG1 Fc with changes left out]
B3: TNFα dAb Fc variant D82P (Fc fusion, name in Kabat numbering)
chain: DIQMTQSPSSLSASVGDRVTITCRASQAIDSYLHWYQQKPGKAPKLLIYSASNLETGVPSRFSGSGSGTDFTLTISSLLPEPFATYYCQQVVWRPFTFGQGTKVEIKRV[human IgG1 Fc with changes left out]
B4: TNFα dAb Fc variant A84P (Fc fusion, name in Kabat numbering)
chain: DIQMTQSPSSLSASVGDRVTITCRASQAIDSYLHWYQQKPGKAPKLLIYSASNLETGVPSRFSGSGSGTDFTLTISSLLPEDFPTYYCQQVVWRPFTFGQGTKVEIKRV[human IgG1 Fc with changes left out]
B5: TNFα dAb Fc variant D82A (Fc fusion, name in Kabat numbering)
chain: DIQMTQSPSSLSASVGDRVTITCRASQAIDSYLHWYQQKPGKAPKLLIYSASNLETGVPSRFSGSGSGTDFTLTISSLLPEAFATYYCQQVVWRPFTFGQGTKVEIKRV[human IgG1 Fc with changes left out]
B6: TNFα dAb Fc variant E81A (Fc fusion, name in Kabat numbering)
chain: DIQMTQSPSSLSASVGDRVTITCRASQAIDSYLHWYQQKPGKAPKLLIYSASNLETGVPSRFSGSGSGTDFTLTISSLLPADFATYYCQQVVWRPFTFGQGTKVEIKRV[human IgG1 Fc with changes left out]
B7: TNFα dAb Fc variant D82L (Fc fusion, name in Kabat numbering)
chain: DIQMTQSPSSLSASVGDRVTITCRASQAIDSYLHWYQQKPGKAPKLLIYSASNLETGVPSRFSGSGSGTDFTLTISSLLPELFATYYCQQVVWRPFTFGQGTKVEIKRV[human IgG1 Fc with changes left out]
B8: TNFα dAb Fc variant A84K (Fc fusion, name in Kabat numbering)
chain: DIQMTQSPSSLSASVGDRVTITCRASQAIDSYLHWYQQKPGKAPKLLIYSASNLETGVPSRFSGSGSGTDFTLTISSLLPEDFKTYYCQQVVWRPFTFGQGTKVEIKRV[human IgG1 Fc with changes left out]
B9: TNFα dAb Fc variant E81Q (Fc fusion, name in Kabat numbering)
chain: DIQMTQSPSSLSASVGDRVTITCRASQAIDSYLHWYQQKPGKAPKLLIYSASNLETGVPSRFSGSGSGTDFTLTISSLLPQDFATYYCQQVVWRPFTFGQGTKVEIKRV[human IgG1 Fc with changes left out]
B10: TNFα dAb Fc variant E81P (Fc fusion, name in Kabat numbering)
chain: DIQMTQSPSSLSASVGDRVTITCRASQAIDSYLHWYQQKPGKAPKLLIYSASNLETGVPSRFSGSGSGTDFTLTISSLLPPDFATYYCQQVVWRPFTFGQGTKVEIKRV[human IgG1 Fc with changes left out]
B11: TNFα dAb Fc variant D70L (Fc fusion, name in Kabat numbering)
chain: DIQMTQSPSSLSASVGDRVTITCRASQAIDSYLHWYQQKPGKAPKLLIYSASNLETGVPSRFSGSGSGTLFTLTISSLLPEDFATYYCQQVVWRPFTFGQGTKVEIKRV[human IgG1 Fc with changes left out]
B12: TNFα dAb Fc variant F62L (Fc fusion, name in Kabat numbering)
chain: DIQMTQSPSSLSASVGDRVTITCRASQAIDSYLHWYQQKPGKAPKLLIYSASNLETGVPSRLSGSGSGTDFTLTISSLLPEDFATYYCQQVVWRPFTFGQGTKVEIKRV[human IgG1 Fc with changes left out]
B13: TNFα dAb Fc variant F71Q (Fc fusion, name in Kabat numbering)
chain: DIQMTQSPSSLSASVGDRVTITCRASQAIDSYLHWYQQKPGKAPKLLIYSASNLETGVPSRFSGSGSGTDQTLTISSLLPEDFATYYCQQVVWRPFTFGQGTKVEIKRV[human IgG1 Fc with changes left out]
B14: TNFα dAb Fc variant E81K (Fc fusion, name in Kabat numbering)
chain: DIQMTQSPSSLSASVGDRVTITCRASQAIDSYLHWYQQKPGKAPKLLIYSASNLETGVPSRFSGSGSGTDFTLTISSLLPKDFATYYCQQVVWRPFTFGQGTKVEIKRV[human IgG1 Fc with changes left out]
B15: TNFα dAb Fc variant G41K (Fc fusion, name in Kabat numbering)
chain: DIQMTQSPSSLSASVGDRVTITCRASQAIDSYLHWYQQKPKKAPKLLIYSASNLETGVPSRFSGSGSGTDFTLTISSLLPEDFATYYCQQVVWRPFTFGQGTKVEIKRV[human IgG1 Fc with changes left out]
B16: TNFα dAb Fc variant A84Q (Fc fusion, name in Kabat numbering)
chain: DIQMTQSPSSLSASVGDRVTITCRASQAIDSYLHWYQQKPGKAPKLLIYSASNLETGVPSRFSGSGSGTDFTLTISSLLPEDFQTYYCQQVVWRPFTFGQGTKVEIKRV[human IgG1 Fc with changes left out]
B17: TNFα dAb Fc variant E81S (Fc fusion, name in Kabat numbering)
chain: DIQMTQSPSSLSASVGDRVTITCRASQAIDSYLHWYQQKPGKAPKLLIYSASNLETGVPSRFSGSGSGTDFTLTISSLLPSDFATYYCQQVVWRPFTFGQGTKVEIKRV[human IgG1 Fc with changes left out]
B18: TNFα dAb Fc variant A84Y (Fc fusion, name in Kabat numbering)
chain: DIQMTQSPSSLSASVGDRVTITCRASQAIDSYLHWYQQKPGKAPKLLIYSASNLETGVPSRFSGSGSGTDFTLTISSLLPEDFYTYYCQQVVWRPFTFGQGTKVEIKRV[human IgG1 Fc with changes left out]
B19: TNFα dAb Fc variant F62S (Fc fusion, name in Kabat numbering)
chain: DIQMTQSPSSLSASVGDRVTITCRASQAIDSYLHWYQQKPGKAPKLLIYSASNLETGVPSRSSGSGSGTDFTLTISSLLPEDFATYYCQQVVWRPFTFGQGTKVEIKRV[human IgG1 Fc with changes left out]
B20: TNFα dAb Fc variant D70Y (Fc fusion, name in Kabat numbering)
chain: DIQMTQSPSSLSASVGDRVTITCRASQAIDSYLHWYQQKPGKAPKLLIYSASNLETGVPSRFSGSGSGTYFTLTISSLLPEDFATYYCQQVVWRPFTFGQGTKVEIKRV[human IgG1 Fc with changes left out]
B21: TNFα dAb Fc variant D82K (Fc fusion, name in Kabat numbering)
chain: DIQMTQSPSSLSASVGDRVTITCRASQAIDSYLHWYQQKPGKAPKLLIYSASNLETGVPSRFSGSGSGTDFTLTISSLLPEKFATYYCQQVVWRPFTFGQGTKVEIKRV[human IgG1 Fc with changes left out]
B22: TNFα dAb Fc variant F62Q (Fc fusion, name in Kabat numbering)
chain: DIQMTQSPSSLSASVGDRVTITCRASQAIDSYLHWYQQKPGKAPKLLIYSASNLETGVPSRQSGSGSGTDFTLTISSLLPEDFATYYCQQVVWRPFTFGQGTKVEIKRV[human IgG1 Fc with changes left out]
B23: TNFα dAb Fc variant A43D (Fc fusion, name in Kabat numbering)
chain: DIQMTQSPSSLSASVGDRVTITCRASQAIDSYLHWYQQKPGKDPKLLIYSASNLETGVPSRFSGSGSGTDFTLTISSLLPEDFATYYCQQVVWRPFTFGQGTKVEIKRV[human IgG1 Fc with changes left out]
B24: TNFα dAb Fc variant F71D (Fc fusion, name in Kabat numbering)
chain: DIQMTQSPSSLSASVGDRVTITCRASQAIDSYLHWYQQKPGKAPKLLIYSASNLETGVPSRFSGSGSGTDDTLTISSLLPEDFATYYCQQVVWRPFTFGQGTKVEIKRV[human IgG1 Fc with changes left out]
B25: TNFα dAb Fc variant D70P (Fc fusion, name in Kabat numbering)
chain: DIQMTQSPSSLSASVGDRVTITCRASQAIDSYLHWYQQKPGKAPKLLIYSASNLETGVPSRFSGSGSGTPFTLTISSLLPEDFATYYCQQVVWRPFTFGQGTKVEIKRV[human IgG1 Fc with changes left out]
B26: TNFα dAb Fc variant D82S (Fc fusion, name in Kabat numbering)
chain: DIQMTQSPSSLSASVGDRVTITCRASQAIDSYLHWYQQKPGKAPKLLIYSASNLETGVPSRFSGSGSGTDFTLTISSLLPESFATYYCQQVVWRPFTFGQGTKVEIKRV[human IgG1 Fc with changes left out]
B27: TNFα dAb Fc variant F71Y (Fc fusion, name in Kabat numbering)
chain: DIQMTQSPSSLSASVGDRVTITCRASQAIDSYLHWYQQKPGKAPKLLIYSASNLETGVPSRFSGSGSGTDYTLTISSLLPEDFATYYCQQVVWRPFTFGQGTKVEIKRV[human IgG1 Fc with changes left out]
B28: TNFα dAb Fc variant E81L (Fc fusion, name in Kabat numbering)
chain: DIQMTQSPSSLSASVGDRVTITCRASQAIDSYLHWYQQKPGKAPKLLIYSASNLETGVPSRFSGSGSGTDFTLTISSLLPLDFATYYCQQVVWRPFTFGQGTKVEIKRV[human IgG1 Fc with changes left out]
B29: TNFα dAb Fc variant F71K (Fc fusion, name in Kabat numbering)
chain: DIQMTQSPSSLSASVGDRVTITCRASQAIDSYLHWYQQKPGKAPKLLIYSASNLETGVPSRFSGSGSGTDKTLTISSLLPEDFATYYCQQVVWRPFTFGQGTKVEIKRV[human IgG1 Fc with changes left out]

The test addresses T1, recombinant human TNFα (CytoLab) (human, UniProt P01375 part only).
T1 construct: coated on the ELISA plate at 1 µg/ml; also called Tumour necrosis factor alpha
T1 sequence (P01375 77-233 limits assumed): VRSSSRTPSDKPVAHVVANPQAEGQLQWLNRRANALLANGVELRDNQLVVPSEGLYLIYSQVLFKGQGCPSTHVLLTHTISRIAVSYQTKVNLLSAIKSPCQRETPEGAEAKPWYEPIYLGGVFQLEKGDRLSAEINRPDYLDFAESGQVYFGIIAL
The experiment in a line: ELISA on coated human TNFα.
B1: the “A450 (AU)” value came to 0.185 AU.
For B2, the “A450 (AU)” value was determined as 0.195 AU.
For B3 the value was 0.204 AU; for B4, 0.178 AU; for B5, 0.219 AU.
As for B6, the figure is 0.896 AU.
Turning to B7, the “A450 (AU)” value is 0.244 AU.
In the case of B8, the “A450 (AU)” value is 0.292 AU.
For B9 the value was 0.808 AU; for B10, 0.761 AU; for B11, 0.991 AU.
As for B12, the figure is 0.613 AU; as for B13, 0.191 AU.
Take B14: the “A450 (AU)” value turned out to be 0.803 AU.
For B15 the value was 0.877 AU; for B16, 0.28 AU; for B17, 0.787 AU.
As to B18, the “A450 (AU)” value was 0.179 AU.
As for B19, the figure is 0.206 AU; as for B20, 0.938 AU.
As for B21, the figure is 0.346 AU; as for B22, 0.184 AU; as for B23, 0.661 AU.
For B24 the value was 0.176 AU; for B25, 0.349 AU.
As to B26, the “A450 (AU)” value was 0.224 AU.
As for B27, the figure is 0.597 AU; as for B28, 0.824 AU; as for B29, 0.213 AU.

The values above are taken from patent publication US20110319597A1 (CAPHALON AUSTRALIA, published 2011).
